Laboratory results from the supplement of paper PMC4604168 (melanoma cell lines).
The other results are listed elsewhere or left out. Many values rest on one well or one pass, so single values are uncertain.

What follows are molecules tested on RPMI7951 (assay: cell count relative to DMSO control; melanoma cells; higher = more viable cells). Conditions: library dose: low library concentration; 72 h.
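Note: cell number obtained by counting DAPI-stained nuclei in high-throughput microscope images with image analysis software, screen run in 1,536-well plates.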

| SMILES | cell count |
| --- | --- |
| Nc1ncn([C@H]2C[C@H](O)[C@@H](CO)O2)c(=O)n1 [decitabine] + c1cc(-c2cnn3cc(-c4ccc(OCCN5CCCCC5)cc4)cnc23)ccn1 [Dorsomorphin] (first compound 0.1 µM, partner dose 0.4 µM) | 80.5% |
| Nc1nc(F)nc2c1ncn2[C@@H]1O[C@H](CO)[C@@H](O)[C@@H]1O [fludarabine] + COc1cc2ncnc(Nc3ccc(Oc4ccccc4)cc3)c2cc1OC [SrcI1] (first compound 0.2 µM, partner dose 2 µM) | 81.6% |
| Nc1ccn([C@@H]2O[C@H](CO)[C@@H](O)C2(F)F)c(=O)n1 [gemcitabine] + O=C(Nc1cccc(Cl)c1)Nc1ncc(CCNc2ncnc3ccsc23)s1 [SNS314] (first compound 0.0004 µM, partner dose 0.0008 µM) | 98.6% |
| Nc1nc(F)nc2c1ncn2[C@@H]1O[C@H](CO)[C@@H](O)[C@@H]1O [fludarabine] + C#Cc1cccc(Nc2ncnc3cc(OCCOC)c(OCCOC)cc23)c1 [erlotinib] (first compound 0.2 µM, partner dose 0.8 µM) | 93.1% |
| Nc1nc(F)nc2c1ncn2[C@@H]1O[C@H](CO)[C@@H](O)[C@@H]1O [fludarabine] + COc1cc(N2CCC(N3CCN(C)CC3)CC2)ccc1Nc1ncc(Cl)c(Nc2ccccc2S(=O)(=O)C(C)C)n1 [NVP-TAE684] (first compound 0.2 µM, partner dose 0.08 µM) | 89.1% |
| CC(=O)c1c(C)c2cnc(Nc3ccc(N4CCNCC4)cn3)nc2n(C2CCCC2)c1=O [palbociclib] + C=CCn1c(=O)c2cnc(Nc3ccc(N4CCN(C)CC4)cc3)nc2n1-c1cccc(C(C)(C)O)n1 [MK1775] (first compound 0.04 µM, partner dose 0.02 µM) | 68.2% |
